PubChem BioAssay AID1963576 (National Center for Advancing Translational Sciences (NCATS), 2024)
In all, about 46,000 compounds went through this assay and about 60 (0.1%) were called active. Another 3% or so got no clear call; they are omitted. Calls come from the whole dose curve; as a rule, active = well fitted inhibition curve with a large enough effect; inconclusive = small, poorly fitted or top-dose-only effect; inactive = no such curve, though single readings can be large or run the other way. The list shows a part of the results.

Experiment: Primary qHTS assay for Inhibitors of ovarian cancer metastasis using an organotypic tumor microenvironment (TME) model.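 For activity change, negative = inhibition: plate controls were DMSO wells for no effect and tomatine positive control wells for full effect.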 Note: nearly all actives have a fitted effect of over 65% in size.
Conditions: SKOV3ip1-GFP adhesion/invasion on 3D omental model, fluorescence; series mostly up to 45.8 µM; activity change, negative = inhibition: at the top concentration
Summary of the method: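 Adhesion/invasion was scored as fixed GFP-labeled SKOV3ip1 cell counts (488/509 nm), normalized to DMSO and tomatine controls. Cancer cells in serum-free medium, with four compound doses (0.36-46 umol/L), sat 2 hr at RT then 16 hr at 37 C on a 48 hr fibroblast/mesothelial/ECM culture.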

Activity change, negative = inhibition, inactive:
COc1ccc(C2Nc3ccccc3-n3c(-c4ccccc4)c4c(=O)n(C)c(=O)n(C)c4c32)cc1 (configuration not stated) 44.6%, COc1ccccc1-c1noc(-c2ccc(NCc3ccccc3)c([N+](=O)[O-])c2)n1 0.82%, Cc1cc2nc(NC(=O)c3ccc(S(=O)(=O)N4CCOCC4)cc3)sc2cc1C -13.4%, Cc1ccccc1-c1ccnc2c(-c3ccc(F)cc3)c(C)nn12 -0.766%, Cc1ccc(C)c(NC(=O)CCc2nc3cccnc3n2Cc2cccs2)c1 0.587%, COc1cc(OC)c(NC(=O)Cn2nc(C)n3cccc3c2=O)cc1Cl 1.51%, CCC(=O)N1CCc2cc(S(=O)(=O)N3CCN(c4ccccc4F)CC3)ccc21 1.32%, CCOC(=O)c1sc2ccccc2c1S(=O)(=O)N1CCN(c2ccccc2F)CC1 4.28%, COc1ccc(C)cc1NC(=O)CN(C)S(=O)(=O)c1ccc2c(c1)CCCN2C(C)=O 3.17%, Cc1ccc(-n2nc3c(N4CCC(C(=O)NCCc5ccccc5)CC4)nnc(C)c3c2C)cc1 -13.9%, CCOc1ccc(NC(=O)Nc2cccc(C)n2)cc1 7.38%, COc1cc(C(=O)N2CCc3c([nH]c4ccccc34)C2c2ccc(F)cc2)cc(OC)c1OC (configuration not stated) -1.49%, CC1=Nc2cc(C(=O)NC3CCC(C)CC3)ccc2Sc2c(C)ccc(C)c21 (configuration not stated) 8.3%, CCC(=O)N1CCc2cc(CNC(=O)Cc3ccc(OC)c(OC)c3)ccc21 36.6%, Cc1ccccc1Cn1cnc2c(oc3ccccc32)c1=O -16.2%, CC(=O)N1CCc2c(sc3c2c(=O)n(Cc2ccccc2)c(=O)n3Cc2cccc(Cl)c2)C1 44%, COc1ccc(-c2cn3nc(N4CCC(C(=O)NCc5cccc(Cl)c5)CC4)sc3n2)cc1 1.86%, COC(=O)c1ccc(Nc2nc(-c3ccc(C)cc3)nc3ccccc23)cc1 26.9%

outcome, inactive:
COc1cccc(NC(=O)Cn2c(=O)n(-c3ccccc3)c(=O)c3c4c(sc32)CCCC4)c1, Cc1ccc(-c2cc(N)n(Cc3cccc(Cl)c3)n2)cc1, CCN(CC)C(=O)CSc1nc(-c2ccccc2)cc(-c2ccc(OC)cc2)c1C#N, CC1=C(c2cccc(Cl)c2)S(=O)(=O)NC1=NCc1ccccc1C, COc1ccc(C)cc1NC(=O)CN1C(=O)CSc2ccc(S(=O)(=O)N3CCCC3)cc21, COc1ccc(N2Cc3cccc(C(=O)Nc4ccc(C)cc4)c3C2=O)cc1, COCCCN1CN=C(NS(=O)(=O)c2ccc(NC(C)=O)cc2)NC1, COc1cc(-c2noc(-c3ccc(N4CCCC4)c([N+](=O)[O-])c3)n2)cc(OC)c1OC, FC(F)(F)c1ccc2c(c1)ncc1c(-c3ccccc3)nn(-c3ccccc3)c12
